B1: LINE1-full (parent)
chain: UACGUAGGUGGUUUUCCCCUGAUAGUGCUAAGGGGGCCUGGAAGUUUGGACUGGGCAGAGCUCAACACAGCGUGGCAAAGUGGCUGUGGCUAGACUGCCUCUCUGGAUUCCUCGUCACUCAGCAGGGCAUCUCUGAGAGAAAUGCC

Read counts are not given, so values of variants with three or more changes are uncertain.

Variants of B1 are the subject of this data set. As to the kind of experiment: self-cleavage, relative activity (ratio to wild type); higher = more cleavage; in vitro, sequencing; the parent is a self-cleaving ribozyme.
In the case of UACGUAGGUGGUUUUCCCCUGAUAGUGCUAAGGGGGCCUGGGAGUUUGGACUGGGCAGAGCUCAACUCAGCGUGGCAAAGUGGCUGUGGCUAGACUGCCUCUCUGGAAUCCUCGUCACUCAGCAGGGCAUCUCUGAGAGAAAUGCC [A42G A67U U108A], the self-cleavage was determined as 0.07.

With UACGUAGGUGGUUUUCCCCUGAUAGUGCUAAGGGGGCCUGGGAGUUUGGACUGGGCAGAGCUCAACACAGCGUGGCAAAGUGGCUGUGGCUAGACUGCCUCUCUGGAUUCCUCGUCACUCAGCGGGGCAUCCCUGAGAGAAAUGCC [A42G A124G U132C], the self-cleavage is 0.74.

Take UACGUAGGUGGUUUUCCCCUGAUAGUGCUAAGGGGGCCUGGGAGUUUGGACUGGGUAGAGCUCUACACAGCGUGGCAAAGUGGCUGUGGCUAGACCGCCUCUCUGGAUUCCUCGUCACUCAGCAGGGCACCUCUGAGGGAAAUGCC [A42G C56U A64U U96C U130C A138G]: the self-cleavage was 0.06.

As to UACGUAGGUGGUUUUCCCCUGAUAGUGCUAAGGGGGCCUGGGAGUUUGGACUGGGCAGAGCUCAACACAUCGUGGCAAAGUGGCUGUGGCUAGACUGCCUCUCUGGAUUCCUCGUCACUCAGCAGGGCAUCUCUGAGAGGAAUGCC [A42G G70U A140G], the self-cleavage turned out to be 0.03.

Regarding UACGUAGGUGGUUUUCCCCUGAUAGUGCUAAGGGGGCCUGGGAGUUUGGACUGGGCAGAGCUCAACACAGCGUGGCAAAGUGGCUGUGGCUAGGCUGCCUCUCUGGAUUCCCCGUCACUCAGCAGGGCAUCUCUGAGAGAAAUGCC [A42G A94G U112C], the self-cleavage amounted to 0.21.

As for UACGUAGGUGGUUUUCCCCUGAUAGUGCUAAGGGGGCCUGGGAGUUUGGACUGGGCAGAGCUCAACACAGCGUGGCAAAGUGGCUGUGGCUAGACUGCCUCUCUGGAUUCCUUGUCACUCAGCAGGGCAUCUCUGAGAGAGAUGCC [A42G C113U A141G], the self-cleavage was 1.44.

For the variant UACGUAGGUGGUUUUCCCCUGAUAGUGCUAAGGGGGCCUGGGAGUUUGGACUGGGCAGAGCUCAUCACAGCGUGGCGAAGUGGCUGUGGCUUGACUGCCUCUCUGGAUUCCUCGUCACUCAGCAGGGCAUCUCUGAGAGAAAUGCC [A42G A65U A77G A92U], the self-cleavage was determined as 0.05.

Take UACGUAGGUGGUUUUCCCCUGAUAGUGCUAAGGGGGCCUGGGAGUUUGGACUGGGCAGAGCUCAACACAGCGUGGCAAGGUGGCUGUGGCUAGACUGCCUCUCUGGAUUCCUCGUCACUCAGCAAGGCAUCUCUGAGAGAAAUGCC [A42G A79G G125A]: the self-cleavage turned out to be 1.57.

Regarding UACGUAGGUGGUUUUCCCCUGAUAGUGCUAAGGGGGCCUGGGAGUUUGGACUGGGCAGAGCUCAACGCAGCGUGGCAAAGUGGCCGUGGCUAGACUGCCUCUCUGGAUUCCUCGUCACUCAGCAGGGCAUCUCUGAGAGAAAUGCC [A42G A67G U85C], the self-cleavage worked out at 0.

On to UACGUAGGUGGUUUUCCCCUGAUAGUGCUAAGGGGGCCUGGGAGUUUGGACUGGGCAGAGCUCAACACAGCGUGGCAAAGUGGCUGUGGCUUGACUGCCUCUCAGGAUUCCUCGUCACUCAGCAGGGCAUCUCUGAGAGAAAUGCC [A42G A92U U104A], for which the self-cleavage stood at 0.51.

UACGUAGGUGGUUUUCCCCUGAUAGUGCUAAGGGGGCCUGGGAGUUUGGACUGGGCAGAGCUCAACACAGCGUGGCAAAGUGGCUGUGGCUGGACAGCCUCUCUGGAUUCCUCGCCACUCAGCAGGGCAUCUCUGAGAGAAAUGCC [A42G A92G U96A U115C]: the self-cleavage turned out to be 0.

UACGUAGGUGGUUUUCCCCUGAUAGUGCUAAGGGGGCCUGGGAGUUUGGACUGGGCAGAGCUCAACGCAGCGUGGCAAAGUGGCUGUGGCUAGACUGCCUCUCUGGAUUCCUCGUCACUCAGCAGGGCAUCCCUGAGAGAAAUGCC [A42G A67G U132C]: the self-cleavage was 0.55.

Take UACGUAGGUGGUUUUCCCCUGAUAGUGCUAAGGGGGCCUGGGAGUUUGGACUGGGCAGAGCUCAACACAGCGUGGCAAAGUGGCUGUGGCUAGACUGCCUCUCUGGUUUCCUCGUCACCCAGCAGGGCAUCUCUGAGAGAAAUGUC [A42G A107U U119C C145U]: the self-cleavage is 0.73.

For UACGUAGGUGGUUUUCCCCUGAUAGUGCUAAGGGGGCCUGGGAGUUUGGACUGGGCAGAGCUCAACACAACGUGGCAAAGUGGCUGUGGCUAGACUGCCUCUCUGGGUUCCUCGUCACUCAGCAGGGCAUCCCAGAGAGAAAUGCC [A42G G70A A107G U132C U134A], the self-cleavage amounted to 0.01.

In the case of UACGUAGGUGGUUUUCCCCUGAUAGUGCUAAGGGGGCCUGGGAGUUUGGACUGGGCAGAGCUCAACACAGCGUGGCAAAGUGGCUGUGGCUAGACUGCCUCUCUGGAUUCCUCGUCACUCAGCGGGGCAUCUCUGAGAUAAAUGCC [A42G A124G G139U], the self-cleavage is 0.77.

For the variant UACGUAGGUGGUUUUCCCCUGAUAGUGCUAAGGGGGCCUGGGAGUUUGGACUGGGCAGAGCUCAACACAGCGUGGCAAAGUGGCUGUGGCUAGUCUGCCUCUCUGGAUUCCUCGUCACUCAGCAGGGCAUCUCUGAGAGAGAUGCC [A42G A94U A141G], the self-cleavage came out at 0.27.

As to UACGUAGGUGGUUUUCCCCUGAUAGUGCUAAGGGGGCCUGGGAGUUUGGACUGGGCAGAGCUCUUCACAGCGUGGCAAAGUGGCUGUGGCUAGACUGCCUCUCUGGAUUCCUCGUCACUCAGCAGGGCAUCUCUGAGAGAAGUGCC [A42G A64U A65U A142G], the self-cleavage was 0.05.

Consider UACGUAGGUGGUUUUCCCCUGAUAGUGCUAAGGGGGCCUGGGAGUUUGGACUGGGCAGAGCUCAACACAGCGUGGCAAAGUGGCUGUGGCUAGAAUGCCUCUCUGGAUUCCUCGUCACUCAGCAGGGCAUCACUGAGGGAAAUGCC [A42G C95A U132A A138G], for which the self-cleavage came out at 0.09.

Consider UACGUAGGUGGUUUUCCCCUGAUAGUGCUAAGGGGGCCUGGGAGUUUGGACUGGGUAGAGCUCAACACAGCGUGGCAAAGUGGCUGUGGCUAGACCGCCUCUCUGGAUUCCUCGUCACUCAGCAGGGCAUCUCUGAGAGAAAUGCC [A42G C56U U96C], for which the self-cleavage amounted to 0.26.

For the origin of these results see the RNAGym collection of RNA variant scans (doi:10.7554/elife.90254).
